From PubChem BioAssay AID504832 (National Center for Advancing Translational Sciences (NCATS), 2011)
“And” between values parts separate entries of the source, which are not always exact repeats. Equal values may be shown once. About 18,000 (5.8%) of roughly 310,000 compounds were called active. Inconclusive means that the source gave no clear call. Such entries were picked first, then a sample of the others. Calls come from the whole dose curve; as a rule, active = well fitted inhibition curve with a large enough effect; inconclusive = small, poorly fitted or top-dose-only effect, or another doubt; inactive = no such curve, though single readings can be large or run the other way. A potency beside an inconclusive call is a rough fit, not a confirmed value.

Assay: Primary qHTS for delayed death inhibitors of the malarial parasite plastid, 48 hour incubation
Details: P. falciparum luciferase growth in erythrocytes; series mostly up to 28.7 µM
Procedure, shortened: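 Luciferase-expressing parasites in RBCs, 2% Hct / 0.1% parasitemia final; RPMI 1640 + 0.5% Albumax; 37 C, 5% CO2, one generation; luminescence read-out, lower signal = inhibition.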
Potency is the fitted concentration of half-maximal effect; tags give direction and shape of the fitted curve.

Compound | Potency
CN1CC(c2ccccc2)C2(COc3ccccc3C2=O)C12C(=O)Nc1ccccc12 (centres undefined) | inconclusive: 8.28 µM [inhibitor, partial curve, poor fit]
CCOC(=O)c1ccccc1NC(=O)CSc1ccc(-c2ccccn2)nn1 | inconclusive: 11.7 µM [inhibitor, single point]
CCN(CC)C(=O)CN1C(=O)c2cccc3cccc1c23 | inconclusive: 0.0037 µM [inhibitor, full curve, poor fit]
CCCOC1CCCN(C(=O)CCc2nnc(CCCCc3ccccc3)o2)C1 (centres undefined) | inconclusive: 18.5 µM [inhibitor, single point]
Cc1ccc(C(=O)NCc2ccc3c(c2)OCO3)cc1S(=O)(=O)N1CCCCC1 | inconclusive: 14.7 µM [inhibitor, single point]
Cc1cccc(NC(=O)CN(C)S(=O)(=O)c2cccs2)c1 | inactive
COc1ccccc1C(=O)Nc1ccc(S(=O)(=O)Nc2cnc3ccccc3n2)cc1 | inactive
COc1ccc(CC(=O)O/N=C(\N)c2ccc(Br)cc2)cc1OC | inconclusive: 3.7 µM [inhibitor, single point]
COc1ccc(/C=N/NC(=O)c2ccccc2OCc2ccccc2)c(OC)c1 | inconclusive: 18.5 µM [inhibitor, single point]
O=C(Nc1ccc(OC(F)F)c(Cl)c1)Nc1ccc2c(c1)OCO2 | inconclusive: 18.5 µM [inhibitor, single point]
Cc1ccc(NC(=O)CN(c2ccccc2)S(=O)(=O)N(C)C)cc1 | inactive
CCCCN1C(=O)/C(=C/C=C2/CC(C)(C)CN2C)SC1=S | inactive
Fc1ccc(-c2ccnc3nc(N4CCOCC4)nn23)cc1 | inactive
COc1ccc(OC)c(NC2=NC3(CCCCC3)N=C(N)N2)c1 | inconclusive: 11.7 µM [inhibitor, partial curve]
CCOC(=O)c1c(NC(=O)c2ccoc2C)sc(C)c1C | inactive
Cc1sc(NC(=O)c2ccccc2)c(C(c2ccccn2)N2CCN(CCO)CC2)c1C (centres undefined) | inconclusive: 14.7 µM [inhibitor, partial curve, poor fit]
COc1ccc(C(=O)C2CCCN(Cc3cn(C)nc3-c3ccccc3)C2)cc1F (centres undefined) | inconclusive: 18.5 µM [inhibitor, single point]
COC(=O)C(NC(=O)CCc1c(C)nc2ncnn2c1C)C(C)C (centres undefined) | inactive
CCOc1ccc(NC(=S)N2CCC(NC(=O)C3CCCCC3)CC2)cc1 | inactive
CC(C)c1ccccc1OCC(=O)Nc1ccc2[nH]ncc2c1 | inconclusive: 0.0052 µM [inhibitor, full curve, poor fit]
COc1cccc(N2CCN(c3ccc([N+](=O)[O-])cn3)CC2)c1 | inactive
COc1ccc(NC(=O)c2cc(S(=O)(=O)N3CCc4ccccc43)cn2C)c(OC)c1 | inconclusive: 9.28 µM [inhibitor, partial curve]
C=CCc1ccccc1OCC(=O)O | inconclusive: 6.57 µM [inhibitor, partial curve, poor fit]
CC(C)CC(c1nnnn1C1CCCCC1)N1CCN(c2ncccn2)CC1 (centres undefined) | inconclusive: 3.7 µM [inhibitor, single point]
CSc1ccc2c(c1)C(N1CCN(C)CC1)Cc1ccccc1S2 (centres undefined) | inconclusive: 5.22 µM [inhibitor, partial curve, poor fit] and inconclusive: 10.7 µM [inhibitor, single point]

Compound | Potency
CC(C(=O)NCC1CCCCC1)N1CCN(S(=O)(=O)c2ccccc2F)CC1 (centres undefined) | inconclusive: 10.4 µM [inhibitor, single point]
Cc1cc(Cl)cc(Cl)c1OCCN1CCCC1 | inactive
Cn1cnc([N+](=O)[O-])c1Oc1ccccc1 | inactive
CCN(CC)CCN(Cc1cc2ccc(C)cc2[nH]c1=O)C(=O)Nc1ccc(Cl)cc1 | inconclusive: 18.5 µM [inhibitor, single point]
Cc1c(C)c2ccc(OCC(=O)NC(Cc3ccc(Cl)cc3)C(=O)O)cc2oc1=O (centres undefined) | inactive
CCc1cc2cc(C)ccc2nc1SCC(=O)N1CC(=O)Nc2ccccc21 | inconclusive: 13.1 µM [inhibitor, single point]
CC(=O)c1sc(NC(=O)c2cc(-c3ccccc3)nn2-c2ccccc2)nc1C | inactive
OC1CCCN(C(=S)NCc2ccccc2)C1 (centres undefined) | inactive
O=C(/C=C/Nc1ccc(OC(F)(F)F)cc1)C(F)(F)F | inactive
CC(C)Oc1ccc(Cc2n[nH]c(=S)n2Cc2ccccc2)cc1Cl | inconclusive: 9.28 µM [inhibitor, single point]
CCCCN(C(=O)c1ccc(-c2ccc(Cl)cc2)o1)c1c(N)n(CCCC)c(=O)[nH]c1=O | inconclusive: 18.5 µM [inhibitor, single point]
CCOC(=O)C(N)CSC1CC(=O)N(c2ccc(OCC)cc2)C1=O (centres undefined) | inconclusive: 7.38 µM [inhibitor, partial curve]
O=c1c2ccccc2ncn1Cc1ccco1 | inactive
O=C(NC(C(=O)N/N=C/c1cccc2ccccc12)c1n[nH]c(=O)c2ccccc12)c1ccccc1 (centres undefined) | inconclusive: 18.5 µM [inhibitor, single point]
CCN1C(=O)C(CC(=O)Nc2ccc(F)cc2)N(Cc2ccco2)C1=S (centres undefined) | inconclusive: 18.5 µM [inhibitor, single point]
C=CCOc1ccc(C(=O)Nc2ccccc2C(=O)NCc2cccnc2)cc1 | active: 11.7 µM
CCc1ccc(NC(=O)NCc2ccccn2)cc1 | inactive
Cn1c(=O)c2c(nc(NCc3ccc4c(c3)OCO4)n2Cc2ccccc2)n(C)c1=O | active: 13.1 µM
COc1cc(/C=N/NC(=O)CN(Cc2ccccc2)S(=O)(=O)c2ccc3c(c2)OCCO3)ccc1O | inactive
Oc1ccccc1CN1CCC(C(O)(c2ccccc2)c2ccccc2)CC1 | active: 7.38 µM
Cc1cc(C)c(C#N)c(Oc2ccc(F)cc2)n1 | inconclusive: 4.15 µM [inhibitor, single point]
COc1ccc(-c2ccc(SCC(=O)NC3CCCCC3)nn2)cc1 | inactive
COc1ccccc1N1CCN(S(=O)(=O)c2ccc(NC(C)=O)cc2)CC1 | inconclusive: 18.5 µM [inhibitor, single point]
CC(=O)N1CCCN(Cc2cn(-c3cccc(C)c3)nc2-c2cccc(F)c2)CC1 | inconclusive: 18.5 µM [inhibitor, single point]
CCOC(=O)c1nn(-c2ccc(Cl)cc2)c2nc(Nc3ccccc3)cc(=O)n12 | inconclusive: 18.5 µM [inhibitor, single point]

Compound | Potency
CCN(CC)Cc1nc2c(c(=O)[nH]1)C(CC)(CC)Cc1ccccc1-2 | active: 9.28 µM
CCNc1nc(SCC(=O)OC)nc(N2CCOCC2)n1 | inactive
Cc1sc(NC(=O)c2ccco2)c(C(c2cccnc2)N2CCCC2)c1C (centres undefined) | active: 11.7 µM
CC(=O)Nc1ccc(S(=O)(=O)NCCC(=O)NCC2COc3ccccc3O2)cc1 (centres undefined) | inconclusive: 0.522 µM [inhibitor, partial curve, poor fit]
CCOC(=O)c1c(-c2cccs2)csc1NC(=O)CN(CC)CC | inconclusive: 9.28 µM [inhibitor, partial curve]
CC(=O)Oc1c(/C=C(\C#N)C(N)=O)[nH]c2ccccc12 | active: 10.4 µM
CCC(=O)N/N=C/c1ccc(-c2ccc(Cl)cc2)o1 | inactive
COc1cc(/C=N/NC(=O)CCN2CCN(C)CC2)cc2c1OCO2 | inconclusive: 14.7 µM [inhibitor, partial curve, poor fit]
CCNS(=O)(=O)c1ccc(OC)c(C(=O)NC2CCCCC2)c1 | inconclusive: 2.62 µM [inhibitor, full curve, poor fit]
COc1ccccc1NS(=O)(=O)c1cccc(C(=O)N/N=C/c2c(CO)cnc(C)c2O)c1 | active: 11.7 µM
CC(=O)Nc1ccc(S(=O)(=O)Nc2nc3cc4c(cc3nc2Cl)OCCO4)cc1 | inactive
COc1cccc(C(=O)/C=C2\Sc3ccccc3N2C)c1 | inactive
O=C(Nc1nccs1)C1(c2ccc(Cl)cc2)CC1 | inconclusive: 18.5 µM [inhibitor, single point]
N#C/C(C(=O)Oc1ccccc1)=C1/Nc2ccccc2-c2ccccc21 | inconclusive: 11.7 µM [inhibitor, partial curve, poor fit]
O=C(Nc1ccc(F)cc1)C(=O)c1c(O)[nH]c2ccc([N+](=O)[O-])cc12 | inactive
CCS(=O)(=O)c1cc([N+](=O)[O-])c(Sc2ccccc2NC(C)=O)s1 | inactive
CC12CCC(=O)N1C(C(=O)NCCN1C(=O)S/C(=C\c3ccccc3F)C1=O)CS2 (centres undefined) | inconclusive: 16.5 µM [inhibitor, single point]
O=C(CN1C(=O)/C(=C\c2cccc(F)c2)Oc2ccccc21)N1CCN(c2ccccn2)CC1 | inactive
Cc1nc(NCCc2ccccc2)sc1C(=O)O | inactive
Cc1ccc(NC(=O)CSc2nc(O)cc(=O)n2-c2ccc(C)cc2)cc1 | active: 13.1 µM
O=C(CN1C(=O)CC(c2ccccc2)S(=O)(=O)c2ccccc21)N1CCCC1 (centres undefined) | inactive
O=C(CSc1nc2cc(Cl)ccc2s1)Nc1cccc(S(=O)(=O)N2CCOCC2)c1 | inconclusive: 8.28 µM [inhibitor, partial curve, poor fit]
CCN(CC#CCC(O)(c1ccccc1)C1CCCC1)C(C)C (centres undefined) | inconclusive: 10.4 µM [inhibitor, single point]
CCC(O)C1CCN(C(=O)c2ccc(OC3CCN(Cc4ccccn4)CC3)cc2)CC1 (centres undefined) | inconclusive: 18.5 µM [inhibitor, partial curve, poor fit]
